Data: PMC4326527
Numbering of substitutions follows the chain as printed. No constants are given. Whether binding was seen depends on the method and setting. Binding seen in cells or lysates may run through a third protein. Some binding calls cover weakened binding; strength is not graded here. For some of these results: Sequences can lack the tags named with a protein.

Sequences of proteins named here, by UniProt entry; tags and fusion partners are left off. A change or cut given only in a name is not applied to a line headed by its entry. A line that says so, or that is headed by a name, gives the form on record, which may keep a tag or linker.
USP46 amino-terminal fragment (1–164) in pNLS(SV40)-GFP (P62068, form named): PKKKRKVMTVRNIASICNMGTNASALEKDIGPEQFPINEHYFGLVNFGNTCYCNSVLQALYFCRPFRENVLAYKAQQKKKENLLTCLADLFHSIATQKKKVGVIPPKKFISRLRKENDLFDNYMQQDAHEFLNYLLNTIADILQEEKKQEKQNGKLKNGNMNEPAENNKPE
USP46 carboxy-terminal fragment (243–366) in pNLS(SV40)-GFP (P62068, form named): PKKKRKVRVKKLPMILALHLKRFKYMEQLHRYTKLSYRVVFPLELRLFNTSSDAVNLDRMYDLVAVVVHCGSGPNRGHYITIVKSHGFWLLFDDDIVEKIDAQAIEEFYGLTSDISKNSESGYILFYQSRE
USP46 central fragment (165–259) in pNLS(SV40)-GFP (P62068, form named): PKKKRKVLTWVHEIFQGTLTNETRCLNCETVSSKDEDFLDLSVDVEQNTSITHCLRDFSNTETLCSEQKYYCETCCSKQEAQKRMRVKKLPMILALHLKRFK
full length USP46 in pNLS(SV40)-GFP (P62068, form named): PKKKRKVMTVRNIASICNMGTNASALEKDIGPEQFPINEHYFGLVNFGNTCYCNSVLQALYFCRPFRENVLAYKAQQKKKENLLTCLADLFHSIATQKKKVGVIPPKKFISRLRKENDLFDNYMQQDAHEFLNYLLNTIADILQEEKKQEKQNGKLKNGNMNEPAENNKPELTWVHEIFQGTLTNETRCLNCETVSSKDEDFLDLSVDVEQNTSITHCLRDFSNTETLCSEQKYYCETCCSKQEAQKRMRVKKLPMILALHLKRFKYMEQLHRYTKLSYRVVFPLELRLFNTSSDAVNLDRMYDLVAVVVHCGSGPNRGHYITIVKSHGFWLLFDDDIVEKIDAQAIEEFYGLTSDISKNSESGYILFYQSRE
UniProt Q8TAF3: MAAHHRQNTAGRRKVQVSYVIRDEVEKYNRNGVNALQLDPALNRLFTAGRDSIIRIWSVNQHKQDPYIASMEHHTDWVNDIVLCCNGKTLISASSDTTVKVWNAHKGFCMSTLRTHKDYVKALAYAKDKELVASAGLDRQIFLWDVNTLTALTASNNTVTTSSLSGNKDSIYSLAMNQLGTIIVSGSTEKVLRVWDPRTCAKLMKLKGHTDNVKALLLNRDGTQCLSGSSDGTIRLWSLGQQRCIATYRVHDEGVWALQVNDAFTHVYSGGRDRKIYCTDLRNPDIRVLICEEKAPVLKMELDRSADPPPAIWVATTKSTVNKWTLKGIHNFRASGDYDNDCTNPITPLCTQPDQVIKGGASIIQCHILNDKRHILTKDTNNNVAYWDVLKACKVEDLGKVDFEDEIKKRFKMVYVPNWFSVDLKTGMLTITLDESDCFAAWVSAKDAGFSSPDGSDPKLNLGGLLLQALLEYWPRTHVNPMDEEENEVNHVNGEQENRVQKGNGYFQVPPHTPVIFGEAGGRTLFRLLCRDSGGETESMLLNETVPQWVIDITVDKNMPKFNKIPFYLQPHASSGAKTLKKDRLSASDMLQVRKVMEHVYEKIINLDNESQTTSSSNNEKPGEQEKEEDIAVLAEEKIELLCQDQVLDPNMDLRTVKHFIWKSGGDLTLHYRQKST

Key:
Test in all cases: co-IP; lysates of co-transfected 293T cells; GFP- or YFP-fusion proteins precipitated with Magnetic GFP-Trap beads; Xpress-UAF1 detected by anti-Xpress immunoblot
[1] = target: T1, GFP-USP1 wild type (human) (UniProt O94782)
T1 sequence: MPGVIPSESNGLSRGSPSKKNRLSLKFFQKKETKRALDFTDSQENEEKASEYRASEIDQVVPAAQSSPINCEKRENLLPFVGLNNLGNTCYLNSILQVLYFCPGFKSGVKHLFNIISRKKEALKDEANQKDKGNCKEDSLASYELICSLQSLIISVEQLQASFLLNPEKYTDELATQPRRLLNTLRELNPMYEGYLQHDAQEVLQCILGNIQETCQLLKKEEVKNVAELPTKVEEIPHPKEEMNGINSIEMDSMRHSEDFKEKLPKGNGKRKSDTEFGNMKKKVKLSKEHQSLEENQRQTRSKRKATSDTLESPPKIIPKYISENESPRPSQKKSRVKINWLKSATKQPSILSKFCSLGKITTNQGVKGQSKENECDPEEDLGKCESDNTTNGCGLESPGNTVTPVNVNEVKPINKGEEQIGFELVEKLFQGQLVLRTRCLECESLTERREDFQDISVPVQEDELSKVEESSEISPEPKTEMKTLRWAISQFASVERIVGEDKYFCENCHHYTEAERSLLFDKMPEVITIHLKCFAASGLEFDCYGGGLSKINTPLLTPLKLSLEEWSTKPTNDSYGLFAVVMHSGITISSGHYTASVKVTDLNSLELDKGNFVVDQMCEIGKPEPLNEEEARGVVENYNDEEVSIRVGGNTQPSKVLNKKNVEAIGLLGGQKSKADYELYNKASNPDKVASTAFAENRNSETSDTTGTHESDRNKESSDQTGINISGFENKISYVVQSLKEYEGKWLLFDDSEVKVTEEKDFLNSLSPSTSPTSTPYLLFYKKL

GFP-USP1^S313A (human) = target: T2, GFP-USP1^S313A (human) (UniProt O94782)
T2 sequence: T1 sequence with S313A

GFP-USP1^S313D (human) = target: T3, GFP-USP1^S313D (human) (UniProt O94782)
T3 sequence: T1 sequence with S313D

[2] = target: USP46 amino-terminal fragment (1–164) in pNLS(SV40)-GFP (Simian virus 40 | not stated) (UniProt P62068)
[3] = target: USP46 carboxy-terminal fragment (243–366) in pNLS(SV40)-GFP (Simian virus 40 | not stated) (UniProt P62068)
[4] = target: USP46 central fragment (165–259) in pNLS(SV40)-GFP (Simian virus 40 | not stated) (UniProt P62068)
[5] = target: full length USP46 in pNLS(SV40)-GFP (Simian virus 40 | not stated) (UniProt P62068)

Xpress-UAF1 (from UniProt Q8TAF3 1-677)
binding [1]: binds | binding (GFP-USP1^S313A (human)): binds | binding (GFP-USP1^S313D (human)): binds | binding [2]: no binding | binding [3]: no binding | binding [4]: binds | binding [5]: binds
